The shares of active, inactive and inconclusive entries below differ from those in the screen. Where the call is inconclusive, the potency comes from a doubtful curve fit. Activity calls are given as the source filed them. Calls follow the shape of the dose curve; as a rule, active = well fitted activation curve with a large enough effect in the signal ratio in the repeat runs (not every such curve was filed as active); inconclusive = weak or mixed curves; inactive = flat fitted curve, though single readings scatter; the % refers to the signal ratio.
assay: p53 small molecule agonists, cell-based qHTS assay (AID 1963582); conditions: HCT-116 p53RE-bla reporter, beta-lactamase FRET ratio, 16 h; activation: at 66 µM (top of the series) unless noted
In short: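 Fluorescence intensity read-out of a beta-lactamase reporter under a p53 response element. Cells were exposed to DMSO-dissolved compounds for 16 h at 37 C, then developed with FRET substrate for 2 h at RT.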
% is scaled to controls: 0 for no effect and ±100 for the full control effect; potency is read from the fitted curve at half-maximal effect; tags tell the direction and shape of the fitted curve or compound fluorescence and quenching.

SMILES | activation | Potency
CCN(CCCCOC(=O)c1ccc(OC)c(OC)c1)C(C)Cc1ccc(OC)cc1 (stereo unspecified) | inactive: -0.574% [at 30.3 µM] | 
CCCN(CCC)C(=O)C(CCC(=O)OCCCN1CCN(CCOC(=O)Cc2c(C)n(C(=O)c3ccc(Cl)cc3)c3ccc(OC)cc23)CC1)NC(=O)c1ccccc1 (stereo unspecified) |  | inconclusive: 15.8 µM [rising, partial curve, poor fit]
C=CCOC(=O)CCCCCCCC | inactive: -1.89% | 
CN1N=C(C(N)=O)CCC1=O | inactive: -0.123% [at 30.3 µM] | 
CC1(C)Oc2ccc(C#N)cc2[C@@H](N2CCCC2=O)[C@@H]1O | inactive: 0.176% [at 30.3 µM] | 
CCN(CC)CCOC(=O)C(c1ccccc1)c1ccccc1 | inactive: 2.23% [at 30.3 µM] | 
CCC(Cc1c(I)cc(I)c(N)c1I)C(=O)O (stereo unspecified) |  | inconclusive: 35.2 µM [rising, partial curve, poor fit]
O=C1c2ccccc2C(=O)C1c1ccccc1 | inactive: 0.113% [at 30.3 µM] | 
C=CCOCC(O)CO (stereo unspecified) | inactive: 0.579% | 
O=C(Nc1ccc(S(=O)(=O)N2CCOCC2)cc1)c1cc(Cl)ccc1NS(=O)(=O)c1ccc(Cl)s1 |  | inconclusive: 8.9 µM [rising, single point]
CC(=O)C(=O)O |  | inactive
NC(=O)c1ncn([C@@H]2O[C@H](CO)[C@@H](O)[C@H]2O)n1 | inconclusive: 20.5% [at 30.3 µM] | inconclusive: 17.1 µM [activator, full curve]
COC(=O)N/N=C/c1c[n+]([O-])c2ccccc2[n+]1[O-] | inactive: 4.01% [at 30.3 µM] | 
CC1CCCCN1CCCOC(=O)c1ccc(OC2CCCCC2)cc1 (stereo unspecified) |  | inconclusive: 22.3 µM [rising, single point]
CC(C)(Oc1ccc(Cl)cc1)C(=O)O |  | inactive

Reference: PubChem BioAssay (Tox21)
